Reference: US11000038B2, “Pyridone compounds and agricultural and horticultural fungicides containing the same as active ingredients” (priority 2017, dated 2021)

Assays:
[1] = tested on: cabbage Alternaria sooty spot fungi (Alternaia brassicicola); test: Test Example C: cabbage Alternaria sooty spot, spray treatment of cabbage plants; type: in vivo; conditions: for Test C control value: cabbage Alternaria sooty spot; for Test C control value class (cabbage Alternaria sooty spot): control value=100{1-(n/3)}
Excerpt: [Test Example C] Cabbage Alternaria Sooty Spot
Test plants (cabbage variety: Shikidori) were cultivated until the cotyledons extended after the sowing of seeds.
<Control Value> Control value=100{1−(n/3)}

[2] = tested on: grape downy mildew fungus (Plasmopara viticola); test: Test Example G: grape downy mildew, spray treatment of grape plants; conditions: for Test G control value: grape downy mildew, 7 to 10 days after inoculation; for Test G control value class (grape downy mildew): 2.5 ml/pot, grape Neomuscat, 7 to 10 days from inoculation
[3] = tested on: barley powdery mildew fungi (Blumeria graminis f. sp. hordei); test: Test Example D: barley powdery mildew, spray treatment of barley plants; conditions: for Test D control value: barley powdery mildew; for Test D control value class (barley powdery mildew): control value=100{1-(n/3)}
[4] = tested on: gray mold fungi (Botrytis cinerea); test: Test Example B: tomato gray mold, spray treatment of tomato plants; conditions: for Test B control value: tomato gray mold; for Test B control value class (tomato gray mold): control value=100{1-(n/3)}
[5] = tested on: wheat brown rust fungi (Puccinia recondita); test: Test Example E: wheat brown rust, spray treatment of wheat plants; type: in vivo; conditions: for Test E control value: wheat brown rust; for Test E control value class (wheat brown rust): control value=100{1-(n/3)}
[6] = spray treatment of cabbage plants
[7] = spray treatment of barley plants
[8] = spray treatment of tomato plants
[9] = spray treatment of wheat plants

Row | Compound | Test C control value [1, 6] | Test G control value ([2]; 250 ppm spray (2.5 ml/pot)) | Test D control value [3, 7] | Test B control value [4, 8] | Test E control value [5, 9] | Test C control value class (cabbage Alternaria sooty spot) [1, 6] | Test G control value class (grape downy mildew) ([2]; 250 ppm spray) | Test D control value class (barley powdery mildew) [3, 7] | Test B control value class (tomato gray mold) [4, 8] | Test E control value class (wheat brown rust) [5, 9] | Test C control value ([1]; spray treatment) | Test G control value ([2]; 250 ppm spray) | Test D control value ([3]; spray treatment) | Test B control value ([4]; spray treatment) | Test E control value ([5]; spray treatment)
1 | Cc1ccc(N)cc1-n1cc(Br)c(=O)c(Cl)c1-c1c(F)cc(F)cc1F [Compound 348] | H (H shows the control value of more than 50%) | L (L shows the control value of 50% or less) | L (L shows the control value of 50% or less) | L (L shows the control value of 50% or less) | L (L shows the control value of 50% or less) |  |  |  |  |  |  |  |  |  | 
2 | COc1cc(F)c(-c2c(Br)c(=O)c(Cl)cn2CCc2ccccc2)c(F)c1 [Compound 103] |  |  |  |  |  | H (H shows the control value of more than 50%) | L (L shows the control value of 50% or less) | L (L shows the control value of 50% or less) | H (H shows the control value of more than 50%) | H (H shows the control value of more than 50%) |  |  |  |  | 
3 | CC1CCCCC1n1cc(Cl)c(=O)c(Cl)c1-c1c(F)cc(F)cc1F (stereo not shown) [Compound 153] |  |  |  |  |  | H (H shows the control value of more than 50%) | L (L shows the control value of 50% or less) | L (L shows the control value of 50% or less) | H (H shows the control value of more than 50%) | H (H shows the control value of more than 50%) |  |  |  |  | 
4 | Cc1ccc(C)c(-n2cc(Cl)c(=O)c(Br)c2-c2c(F)cc(F)cc2F)c1 [Compound 148] |  |  |  |  |  | H (H shows the control value of more than 50%) | H (H shows the control value of more than 50%) | H (H shows the control value of more than 50%) | H (H shows the control value of more than 50%) | H (H shows the control value of more than 50%) |  |  |  |  | 
5 | Cc1cn(-c2ccccc2)c(-c2ccc(Cl)cc2Cl)c(C)c1=O [Compound 595] |  |  |  |  |  |  |  |  |  |  | H (H shows the control value of more than 50%) | L (L shows the control value of 50% or less) | L (L shows the control value of 50% or less) | H (H shows the control value of more than 50%) | H (H shows the control value of more than 50%)
6 | CCC(C)Cn1cc(Cl)c(=O)c(Br)c1-c1c(F)cc(F)cc1F (stereo not shown) [Compound 165] |  |  |  |  |  | H (H shows the control value of more than 50%) | H (H shows the control value of more than 50%) | H (H shows the control value of more than 50%) | H (H shows the control value of more than 50%) | H (H shows the control value of more than 50%) |  |  |  |  | 
7 | CNc1ccc(C)c(-n2cc(Br)c(=O)c(Cl)c2-c2c(F)cc(F)cc2F)c1 [Compound 374] |  |  |  |  |  |  |  |  |  |  | H (H shows the control value of more than 50%) | L (L shows the control value of 50% or less) | L (L shows the control value of 50% or less) | H (H shows the control value of more than 50%) | L (L shows the control value of 50% or less)
8 | CCOCOc1ccc(C)c(-n2cc(Br)c(=O)c(Cl)c2-c2c(F)cc(F)cc2F)c1 [Compound 292] | H (H shows the control value of more than 50%) | L (L shows the control value of 50% or less) | L (L shows the control value of 50% or less) | H (H shows the control value of more than 50%) | H (H shows the control value of more than 50%) |  |  |  |  |  |  |  |  |  | 
9 | CCc1c(-c2c(F)cc(F)cc2F)n(CC(C)C)cc(C)c1=O [Compound 231] | H (H shows the control value of more than 50%) | L (L shows the control value of 50% or less) | H (H shows the control value of more than 50%) | H (H shows the control value of more than 50%) | H (H shows the control value of more than 50%) |  |  |  |  |  |  |  |  |  | 
10 | COc1cc(F)c(-c2c(Br)c(=O)c(Cl)cn2CCC(C)C)c(F)c1 [Compound 204] | H (H shows the control value of more than 50%) | L (L shows the control value of 50% or less) | L (L shows the control value of 50% or less) | H (H shows the control value of more than 50%) | L (L shows the control value of 50% or less) |  |  |  |  |  |  |  |  |  | 
11 | Cc1ccccc1-n1cc(C)c(=O)c(C)c1-c1ccccc1Cl [Compound 354] | H (H shows the control value of more than 50%) | L (L shows the control value of 50% or less) | H (H shows the control value of more than 50%) | H (H shows the control value of more than 50%) | H (H shows the control value of more than 50%) |  |  |  |  |  |  |  |  |  | 
12 | CCc1c(-c2ccccc2)n(-c2cc(Cl)ccc2C)cc(Br)c1=O [Compound 553] |  |  |  |  |  |  |  |  |  |  | L (L shows the control value of 50% or less) | L (L shows the control value of 50% or less) | L (L shows the control value of 50% or less) | H (H shows the control value of more than 50%) | L (L shows the control value of 50% or less)
13 | CC(C)Cn1cc(Cl)c(=O)c(Cl)c1-c1c(F)cc(F)cc1F [Compound 107] |  |  |  |  |  | H (H shows the control value of more than 50%) | H (H shows the control value of more than 50%) | H (H shows the control value of more than 50%) | H (H shows the control value of more than 50%) | H (H shows the control value of more than 50%) |  |  |  |  | 
14 | Cc1ccc(C)c(-n2cc(C)c(=O)c(C)c2-c2c(F)cccc2F)c1 [Compound 402] |  |  |  |  |  |  |  |  |  |  | L (L shows the control value of 50% or less) | L (L shows the control value of 50% or less) | L (L shows the control value of 50% or less) | H (H shows the control value of more than 50%) | H (H shows the control value of more than 50%)
15 | CCc1c(-c2c(F)cccc2F)n(-c2ccccc2Cl)cc(Br)c1=O [Compound 511] |  |  |  |  |  |  |  |  |  |  | H (H shows the control value of more than 50%) | L (L shows the control value of 50% or less) | H (H shows the control value of more than 50%) | H (H shows the control value of more than 50%) | H (H shows the control value of more than 50%)
16 | COc1cc(F)c(-c2c(Br)c(=O)c(Br)cn2C(C)C(C)C)c(F)c1 (stereo not shown) [Compound 53] |  |  |  |  |  | H (H shows the control value of more than 50%) | L (L shows the control value of 50% or less) | L (L shows the control value of 50% or less) | H (H shows the control value of more than 50%) | H (H shows the control value of more than 50%) |  |  |  |  | 
17 | O=c1c(Cl)cn(CCc2ccccc2)c(-c2c(F)cc(F)cc2F)c1Cl [Compound 94] |  |  |  |  |  | L (L shows the control value of 50% or less) | L (L shows the control value of 50% or less) | L (L shows the control value of 50% or less) | L (L shows the control value of 50% or less) | H (H shows the control value of more than 50%) |  |  |  |  | 
18 | Cc1ccc(Br)cc1-n1cc(Br)c(=O)c(Cl)c1-c1c(F)cc(F)cc1F [Compound 247] | H (H shows the control value of more than 50%) | L (L shows the control value of 50% or less) | L (L shows the control value of 50% or less) | H (H shows the control value of more than 50%) | H (H shows the control value of more than 50%) |  |  |  |  |  |  |  |  |  | 
19 | O=c1c(Br)cn(-c2cccc(Cl)c2)c(-c2c(F)cc(F)cc2F)c1Br [Compound 140] |  |  |  |  |  | H (H shows the control value of more than 50%) | L (L shows the control value of 50% or less) | L (L shows the control value of 50% or less) | L (L shows the control value of 50% or less) | L (L shows the control value of 50% or less) |  |  |  |  | 
20 | CCc1c(-c2ccccc2)n(-c2cc(Cl)ccc2C)cc(C)c1=O [Compound 568] |  |  |  |  |  |  |  |  |  |  | H (H shows the control value of more than 50%) | L (L shows the control value of 50% or less) | H (H shows the control value of more than 50%) | H (H shows the control value of more than 50%) | H (H shows the control value of more than 50%)
